Assay results from PubChem BioAssay AID1030 (National Center for Advancing Translational Sciences (NCATS), 2008).
Hit rate of the full screen: of about 220,000 compounds, about 16,000 (7.3%) were called active. Inconclusive results, whose numbers are uncertain, are shown with a selection of clear calls. The call rests on the fitted dose curve; in most records, active means well fitted inhibition curve with a large enough effect (not every such curve was filed as active); inconclusive means small, poorly fitted or top-dose-only effect, or another doubt; inactive means no such curve, though single readings can be large or run the other way. Potencies of inconclusive entries are doubtful fits and often do not repeat.

target: Aldehyde dehydrogenase 1A1 (Homo sapiens) (UniProt P00352); test: qHTS Assay for Inhibitors of Aldehyde Dehydrogenase 1 (ALDH1A1); details: Purified ALDH1A1, NADH fluorescence, propionaldehyde substrate; series mostly up to 75.3 µM;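 on activity, negative = inhibition: plate controls were no enzyme wells and a reference inhibitor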
Potency means the concentration at half of the fitted maximal effect; tags describe the fitted curve by direction and shape.

Chain of UniProt P00352 (P00352 whole entry, looked up): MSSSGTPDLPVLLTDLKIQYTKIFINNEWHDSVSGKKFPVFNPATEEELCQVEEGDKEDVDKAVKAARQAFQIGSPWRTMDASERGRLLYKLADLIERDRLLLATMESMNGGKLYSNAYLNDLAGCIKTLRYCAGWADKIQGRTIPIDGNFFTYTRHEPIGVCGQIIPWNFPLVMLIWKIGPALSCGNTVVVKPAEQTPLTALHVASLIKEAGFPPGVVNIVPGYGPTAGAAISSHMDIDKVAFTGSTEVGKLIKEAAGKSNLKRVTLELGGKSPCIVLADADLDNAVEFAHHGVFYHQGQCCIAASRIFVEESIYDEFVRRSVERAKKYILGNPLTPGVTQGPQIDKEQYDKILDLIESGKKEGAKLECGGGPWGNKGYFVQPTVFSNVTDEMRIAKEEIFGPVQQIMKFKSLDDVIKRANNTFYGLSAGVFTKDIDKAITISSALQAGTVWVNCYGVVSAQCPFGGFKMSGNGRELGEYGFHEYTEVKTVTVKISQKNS

Potency, active:
CCCCCC(=O)NC(=S)Nc1ccc2oc(=O)ccc2c1 7.08 µM
COc1ccccc1N1C(=O)N(C(C)=O)C2C1Nc1ccccc1N2C (stereo not drawn) 1.78 µM
COC(=O)c1ccc(Cl)cc1NC(=O)/C=C/c1ccc(C)o1 20 µM
Cn1ccnc1SCC(=O)c1ccc(Br)cc1 3.55 µM
Cn1c(N)c(C(=O)Nc2ccc3ccccc3c2)sc1=S 12.6 µM
O=C1OCCC1Sc1nc2cc(Cl)ccc2n1Cc1ccccc1 (stereo not drawn) 25.1 µM
COc1ccc(CN(C(=O)c2nsc(Cl)c2Cl)C(C(=O)NC2CCCCC2)c2ccc(OC)cc2)cc1 (stereo not drawn) 7.08 µM
CC(C)c1ccc(N(CC(=O)NCc2ccc(F)cc2)C(=O)c2csnn2)cc1 5.01 µM
Cc1noc(/C=C/c2nn(C)cc2Cl)c1[N+](=O)[O-] 8.91 µM
Cc1ccc(-n2nnnc2SCC(=O)N2CC(=O)Nc3ccccc32)cc1 11.2 µM

Potency, inactive:
Cc1ccccc1CS(=O)(=O)c1nnc([C@H](CC(C)C)NC(=O)OC(C)(C)C)o1
O=C(O)c1cc(NCc2ccc(F)cc2)ccc1N1CCOCC1
COC(=O)CNC(=O)c1ccccc1F
CCn1c(CNc2ccc(C(=O)O)cc2)nc2ccccc21
COc1cccc(/C=N/Nc2ccc(C(=O)O)cc2)c1O
CC(=O)N1CCc2cc(S(=O)(=O)CCC(=O)N3CCc4ccccc4C3)ccc21
O/N=C/c1cc(Br)cc(Br)c1OCc1ccccc1
CCOC(=O)N1CCN(C(=O)c2ccc3c(=O)n(CCc4ccccc4)c(=S)[nH]c3c2)CC1
Cc1sc2cc(-c3cccc([N+](=O)[O-])c3)c(-c3cccc([N+](=O)[O-])c3)c[n+]2c1C
COc1ccc(NC(=S)N2CCC(C(=O)c3ccc(F)cc3)CC2)c(OC)c1
CCCCNc1cnn(-c2ccccc2)c(=O)c1Cl
Cc1ccc(C)c(Cn2nnc3c(=O)[nH]c(C(=O)NCC4CCCO4)nc32)c1 (stereo not drawn)
C=C1/C(=C\C=C2/CCC[C@]3(C)[C@@H]([C@H](C)CCCC(C)(C)O)CC[C@@H]23)C[C@@H](O)C[C@@H]1O
CN1C(=O)/C(=C/c2ccccc2OCc2ccccc2F)NC1=S
Cc1cc(/C=N/NC(N)=O)c(C)n1-c1ccc(F)cc1
O=C(NNC(=S)NCCCN1CCOCC1)c1ccncc1
CCOC(=O)c1csc(-c2sccc2Br)n1
O=C(CN1CCOCC1)Nc1ncc(Cc2cccc3ccccc23)s1
CCOC(=O)c1[nH]c(C)c(C(=O)N2CCN(C(=O)c3ccco3)CC2)c1C
Nn1c(SCC(=O)N2CCN(S(=O)(=O)c3ccc(Cl)cc3)CC2)nnc1-c1cccs1

Potency, inconclusive:
O=C(NCCN1C(=O)S/C(=C\c2ccccc2F)C1=O)C1CCN(S(=O)(=O)c2cccs2)CC1 11.2 µM [inhibitor, partial curve]
CC(C)OC(=O)CSc1nc(N)c(C#N)c(-c2cccs2)c1C#N 14.1 µM [inhibitor, partial curve]
COc1ccc(C2(CNC(=O)c3ccccc3)CCOCC2)cc1 39.8 µM [inhibitor, single point]
C/C(CC(=O)Nc1ccc(F)cc1)=N\NC(=O)COc1ccccc1 35.5 µM [inhibitor, single point]
CN(C)c1ccc(C(=O)n2nnc3ccccc32)cc1 28.2 µM [inhibitor, single point]
CC1=C(C(=O)N2CCCC(C(=O)c3cccc(C(F)(F)F)c3)C2)OCCO1 (stereo not drawn) 22.4 µM [inhibitor, single point]
Cc1cc(Br)ccc1NC(=O)CN1C(=O)CCC1=O 35.5 µM [inhibitor, single point]
Cc1cc(N2CCCCC2)nc2ccc(Cc3ccc4nc(N5CCCCC5)cc(C)c4c3)cc12 3.55 µM [inhibitor, partial curve]
CC(=O)O[C@H]1CC[C@@]2(C)[C@@H](CC[C@H]3[C@H]2CC(=O)[C@@]2(C)[C@@H]3C[C@H]3CC(C)=CC(=O)[C@H]32)C1 4.47 µM [inhibitor, partial curve]
COc1ncc2nc(-c3ccc(F)cc3)c(=O)n(CCC#N)c2n1 28.2 µM [inhibitor, partial curve]
CCCN(Cc1cc(=O)[nH]c2ccccc12)C(=O)CC 35.5 µM [inhibitor, single point]
CCn1c(O)c(N=NC(=O)CNC(=O)/C=C/c2ccco2)c2ccccc21 39.8 µM [inhibitor, single point]
COC(=O)C(C)Sc1nnc(SC(C)C(=O)OC)s1 (stereo not drawn) 39.8 µM [inhibitor, single point]
Cc1c2ccccc2nc2c(F)c(NCCO)c(F)c(F)c12 8.91 µM [inhibitor, partial curve]
CC(C)(C)[C@@H]1C=C(C(=O)N2CCN(Cc3ccccc3)CC2)O[C@H](OCCCCO)C1 39.8 µM [inhibitor, single point]
COc1ccc(OC)c(C(=O)CSc2nnnn2C)c1 28.2 µM [inhibitor, single point]
CCN(Cc1ccccc1)C(=O)CCc1nc(-c2ccc(C)cc2)no1 28.2 µM [inhibitor, partial curve]
O=C(NC1CC1)c1cc2c(s1)-c1ccccc1OC2 28.2 µM [inhibitor, partial curve]
CC(=O)OCCn1c(=O)c2cc3c(=O)n(CCOC(C)=O)c(=O)c3cc2c1=O 39.8 µM [inhibitor, single point]
CCN(Cc1ccccc1)Cc1nnnn1Cc1ccccc1 39.8 µM [inhibitor, single point]
CCOC(=O)C1CCN(S(=O)(=O)c2cccc(-c3cn4cc(Cl)ccc4n3)c2)CC1 10 µM [inhibitor, partial curve]
Cc1cc[n+](C(C)C(=O)c2ccc(-c3ccccc3)cc2)cc1 (stereo not drawn) 35.5 µM [inhibitor, partial curve]
COc1ccc(OC)c(/C=C/C(=O)N(C)CC(=O)Nc2ccc(C)cc2)c1 35.5 µM [inhibitor, partial curve]
Cc1ccc(NC2c3ncccc3C(=O)N2c2ccccc2C)cc1C (stereo not drawn) 28.2 µM [inhibitor, single point]
c1ccc(-c2csc3nnc(SCc4ccc5c(c4)OCO5)n23)cc1 39.8 µM [inhibitor, single point]
Cc1cc(NC(=O)CSc2nc3c(cc2C#N)CCCCC3)no1 35.5 µM [inhibitor, single point]
COc1ccc(-c2cnnn2-c2ccc(NC(=O)/C=C/c3ccc(OC)c(OC)c3)cc2)cc1 39.8 µM [inhibitor, single point]
Cc1ccc(-c2noc(CN(C(=O)CCN3C(=O)c4ccccc4C3=O)C(C)C)n2)cc1 39.8 µM [inhibitor, single point]
O=C(CNC(=S)N(Cc1ccccc1)Cc1cccs1)NCc1ccc(F)cc1 39.8 µM [inhibitor, single point]
CCCc1cc(C(=O)Nc2ccccc2SC)no1 12.6 µM [inhibitor, partial curve]
Cc1cc(C)c(C#N)c(SC2CCCCC2=O)n1 (stereo not drawn) 31.6 µM [inhibitor, single point]
Cc1nn(C)c(C(=O)NC2C3CC4CC(C3)CC2C4)c1Cl (stereo not drawn) 22.4 µM [inhibitor, single point]
COc1cc(CN2CCN(c3ccccc3F)CC2)cc(OC)c1O 44.7 µM [inhibitor, single point]
CCOC(=O)c1cc(-c2cccs2)nc2onc(C)c12 20 µM [inhibitor, partial curve]
COc1cccc(-c2cn3nc(C)c(C)nc3n2)c1 28.2 µM [inhibitor, partial curve]
COc1cccc(-c2cc(C(=O)Nc3cccc(O)c3)no2)c1 39.8 µM [inhibitor, single point]
CCOCCCNC(=S)NCCNc1nc2ccc(C)cc2cc1C#N 39.8 µM [inhibitor, single point]
O=C(c1ccco1)N1CCN(c2ncnc3c2nnn3Cc2ccccc2Cl)CC1 11.2 µM [inhibitor, partial curve]
O=C(CN1C(=O)NC2(CCCCCC2)C1=O)N1CCN(S(=O)(=O)c2ccc(Cl)cc2)CC1 20 µM [inhibitor, single point]
CC1CCCCC1NC(=O)c1ccc(CSc2nc3ccncc3[nH]2)cc1 (stereo not drawn) 39.8 µM [inhibitor, single point]
CCn1c(-c2cccc(Cl)c2)n[nH]c1=S 39.8 µM [inhibitor, single point]
COc1ccc(C2c3sc(=O)[nH]c3SC3C4CCC(C4)C23)cc1OC (stereo not drawn) 35.5 µM [inhibitor, single point]

activity, negative = inhibition, inactive:
CC1(C)O[C@H]2[C@@H](O1)[C@@H](On1nnc3ccc(Cl)cc31)O[C@@H]2[C@@H]1COC(C)(C)O1 -6.52% [at 13.5 µM]
